In the supplement of paper PMC7826260:
The other results are listed elsewhere or left out. Viral Rep nickase domains cut single-stranded DNA in vitro (3 µM enzyme, 1 h, 37 °C); shown is the middle of each 90-letter strand. Values are log2 of uncut reads against the no-enzyme pool; the lower, the more was cut; hits are not called. Counts are relative to all reads; uncut strands gain when others are lost, and binding without cutting may add a little.

Tests used:
Assay in all cases: uncleaved DNA left, log2 of reads against the no-enzyme library (log2 ratio); higher = less cleavage (more negative = more Rep cleavage of the k-mer); sequences stand for … in CTCGTCCG…ACCGGAGA
[1] = tested on: T1, Rep nickase domain of Muscovy duck circovirus
T1 sequence (protein, residues 1-111, tag omitted): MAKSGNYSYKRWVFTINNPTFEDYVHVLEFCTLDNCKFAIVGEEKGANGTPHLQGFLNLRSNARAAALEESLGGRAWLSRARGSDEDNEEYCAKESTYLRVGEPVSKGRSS
Description: (§1)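 A pool of 90-nt single-stranded DNAs with seven random bases just before the constant AC of the nick site (name = the seven bases) was cut by 3 µM recombinant His6-SUMO-tagged Rep nickase domain (300 nM DNA, 50 mM HEPES pH 8.0, 50 mM NaCl, 1 mM MnCl2, 1 h, 37 °C, three replicates). Uncut DNA was amplified and sequenced.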

[2] = tested on: T2, Rep nickase domain of banana bunchy top virus
T2 sequence (protein, residues 1-94, tag omitted): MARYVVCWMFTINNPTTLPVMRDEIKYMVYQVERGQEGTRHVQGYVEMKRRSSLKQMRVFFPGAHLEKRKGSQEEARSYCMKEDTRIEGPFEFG
Description: as §1

[3] = tested on: T3, Rep nickase domain of cabbage leaf curl virus
T3 sequence (protein, residues 1-116, tag omitted): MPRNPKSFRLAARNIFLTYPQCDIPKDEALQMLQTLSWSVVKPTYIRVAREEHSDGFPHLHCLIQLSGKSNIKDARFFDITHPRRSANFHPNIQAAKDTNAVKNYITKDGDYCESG
Description: as §1

[4] = tested on: T4, Rep nickase domain of chickpea chlorotic dwarf virus
T4 sequence (protein, residues 1-124, tag omitted): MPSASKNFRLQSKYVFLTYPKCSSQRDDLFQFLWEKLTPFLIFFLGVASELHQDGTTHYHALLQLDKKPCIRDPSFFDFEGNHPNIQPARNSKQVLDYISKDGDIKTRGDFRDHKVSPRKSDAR
Description: as §1

[5] = tested on: T5, Rep nickase domain of faba bean necrotic yellows virus
T5 sequence (protein, residues 1-98, tag omitted): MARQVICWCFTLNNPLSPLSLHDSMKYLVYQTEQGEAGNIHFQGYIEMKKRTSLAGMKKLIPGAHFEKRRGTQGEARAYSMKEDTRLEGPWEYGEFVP
Description: as §1

[6] = tested on: T6, Rep nickase domain of maize striate mosaic virus
T6 sequence (protein, residues 1-117, tag omitted): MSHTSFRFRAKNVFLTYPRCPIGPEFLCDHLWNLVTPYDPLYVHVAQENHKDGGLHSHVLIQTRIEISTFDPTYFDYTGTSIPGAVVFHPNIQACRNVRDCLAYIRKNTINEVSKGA
Description: as §1

[7] = tested on: T7, Rep nickase domain of porcine circovirus 2
T7 sequence (protein, residues 2-116, tag omitted): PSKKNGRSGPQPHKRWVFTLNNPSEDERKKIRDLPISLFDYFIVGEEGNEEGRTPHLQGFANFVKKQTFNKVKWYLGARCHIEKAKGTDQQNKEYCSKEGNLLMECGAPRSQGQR
Description: as §1

[8] = tested on: T8, Rep nickase domain of tomato golden mosaic virus
T8 sequence (protein, residues 1-124, tag omitted): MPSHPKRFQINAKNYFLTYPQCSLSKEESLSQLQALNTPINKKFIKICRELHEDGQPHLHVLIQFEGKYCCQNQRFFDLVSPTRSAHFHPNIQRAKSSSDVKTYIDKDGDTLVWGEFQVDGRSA
Description: as §1

[9] = tested on: T9, Rep nickase domain of tomato yellow leaf curl virus
T9 sequence (protein, residues 1-136, tag omitted): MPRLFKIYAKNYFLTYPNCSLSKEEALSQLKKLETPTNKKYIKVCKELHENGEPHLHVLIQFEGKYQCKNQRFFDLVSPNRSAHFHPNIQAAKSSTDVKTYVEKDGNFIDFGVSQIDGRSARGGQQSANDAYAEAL
Description: as §1

[10] = tested on: T10, Rep nickase domain of wheat dwarf virus
T10 sequence (protein, residues 1-137, tag omitted): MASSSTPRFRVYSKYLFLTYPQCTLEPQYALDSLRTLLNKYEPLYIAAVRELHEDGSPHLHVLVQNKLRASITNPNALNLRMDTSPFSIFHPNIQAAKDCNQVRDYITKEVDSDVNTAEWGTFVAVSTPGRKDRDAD
Description: as §1

| Sequence | uncleaved DNA left (log2) [1] | uncleaved DNA left (log2) [2] | uncleaved DNA left (log2) [3] | uncleaved DNA left (log2) [4] | uncleaved DNA left (log2) [5] | uncleaved DNA left (log2) [6] | uncleaved DNA left (log2) [7] | uncleaved DNA left (log2) [8] | uncleaved DNA left (log2) [9] | uncleaved DNA left (log2) [10] |
| --- | --- | --- | --- | --- | --- | --- | --- | --- | --- | --- |
| ATTAAGA | 0.102 | 0.0827 | -0.0118 | -0.151 | 0.0499 | -1.04 | 0.105 | 0.113 | 0.0912 | -0.00571 |
| AGCCTAC | -0.0773 | -0.134 | -0.242 | -0.732 | -0.0731 | 0.0941 | -0.126 | -0.129 | -0.0521 | -0.0671 |
| AATTAAC | -0.111 | -0.0791 | -0.567 | -1.9 | -0.071 | -0.906 | -0.199 | -0.141 | -0.123 | -0.0794 |
| TAACGGG | -0.0439 | -0.0296 | -0.45 | -0.678 | -0.0859 | -0.63 | 0.053 | 0.046 | -0.0517 | -0.105 |
| CCCAGAA | 0.14 | 0.0969 | 0.147 | 0.0126 | 0.191 | -0.556 | 0.0116 | 0.134 | 0.0321 | 0.0527 |
| CCTACAG | 0.0269 | -0.0661 | -1.05 | -2.09 | -0.00958 | -1.19 | 0.181 | -0.0791 | 0.00732 | -0.161 |
| CGACTGG | 0.0369 | -0.115 | -0.103 | 0.555 | -0.069 | 1.4 | 0.0746 | -0.0558 | -0.0285 | 0.166 |
| CGGATCC | 0.0495 | 0.192 | 0.214 | 0.747 | 0.0565 | 0.7 | 0.217 | 0.136 | 0.184 | 0.175 |
| AGACGAA | -0.0934 | -0.0984 | 0.337 | 0.772 | -0.0703 | 0.674 | -0.0314 | -0.045 | -0.0726 | 0.0204 |
| CGTGGCA | 0.061 | 0.132 | 0.162 | 0.262 | -0.0466 | -0.136 | 0.00927 | 0.0873 | 0.182 | 0.0162 |
| ATGTGTT | -3.16 | -1.51 | -0.401 | -1.81 | -2.06 | 0.427 | -3.55 | -0.0107 | -0.0346 | -0.276 |
| CAATATG | -0.0573 | -0.0159 | -0.655 | -0.725 | 0.0405 | -1.26 | 0.0795 | -0.0225 | -0.041 | -0.0912 |
| TATCTCC | 0.0993 | -0.00199 | -0.05 | 0.0586 | 0.0203 | 1.49 | 0.0587 | -0.0404 | 0.00803 | -0.014 |
| TGGTGCT | -0.554 | 0.0272 | -0.27 | -0.652 | -0.0187 | -0.544 | -2.79 | 0.00383 | 0.0453 | -0.0419 |
| CTATGAA | -0.171 | 0.0945 | -0.0188 | -0.239 | 0.107 | -0.771 | -0.0976 | 0.114 | 0.0425 | -0.0518 |
| AGCAGAG | 0.0512 | -0.0171 | -0.264 | -0.107 | 0.0432 | -0.538 | 0.0847 | 0.00894 | 0.0396 | 0.0674 |
| ATCTCCT | -0.179 | -0.0261 | -0.294 | -0.651 | -0.164 | 0.946 | -0.538 | -0.11 | 0.0178 | -0.234 |
| CTGCCAT | 0.115 | 0.0715 | 0.0256 | -0.176 | 0.0263 | -0.124 | -0.00551 | 0.0191 | 0.0433 | 0.0748 |
| AATCTGT | 0.0499 | -0.0186 | 0.13 | -0.147 | 0.088 | 0.726 | -0.122 | -0.0445 | 0.0597 | 0.127 |
| CCCGTCC | 0.123 | -0.00785 | 0.144 | -0.143 | 0.00942 | -0.104 | 0.0506 | -0.0175 | 0.0775 | -0.0682 |
| GTTTGAT | 0.000224 | 0.0716 | 0.431 | 0.957 | 0.00299 | 1.66 | -0.109 | 0.186 | 0.0601 | 0.0989 |
| TATGAGT | 0.0669 | -0.0675 | -0.717 | -1.57 | -0.0418 | -1.05 | -0.198 | -0.0944 | -0.0144 | -0.0639 |
| GGTAACC | 0.117 | 0.0946 | 0.429 | 1.02 | -0.0108 | 1.75 | 0.0403 | 0.0548 | 0.172 | 0.144 |
| AGAGACT | 0.0187 | 0.0954 | -0.00975 | 0.797 | 0.0293 | 1.68 | 0.0353 | 0.0515 | -0.0752 | 0.129 |
| CTTCCAT | 0.0325 | 0.0391 | -0.0142 | -0.836 | -0.155 | -0.571 | -0.126 | -0.148 | -0.0178 | -0.0358 |
| GGTAGTT | -0.151 | -0.00335 | 0.489 | 1.09 | -0.13 | 1.87 | -0.0945 | -0.151 | -0.018 | -0.00728 |
| ACTATGG | -0.00714 | -0.00488 | -0.577 | -0.398 | -0.0469 | -1.31 | 0.12 | -0.107 | -0.0286 | -0.109 |
| CGGAGTG | 0.0476 | -0.0994 | -0.2 | 0.145 | -0.0776 | 0.0779 | 0.105 | -0.0576 | 0.109 | -0.114 |
| TCTCGTC | -0.00699 | -0.112 | 0.0514 | -0.278 | -0.0488 | -0.687 | -0.148 | -0.168 | -0.184 | -0.144 |
| AGGCTAA | -0.0913 | -0.0589 | 0.0067 | 0.237 | -0.169 | 0.348 | -0.174 | -0.0185 | -0.171 | -0.0277 |
